Laboratory results from ChEMBL document CHEMBL4888484, “Replenishing the malaria drug discovery pipeline: Screening and hit evaluation of the MMV Hit Generation Library 1 (HGL1) against asexual blood stage Plasmodium falciparum ,using a nano luciferase reporter read-out” (2022).
Out of some 150,000 compounds screened, about 540 (0.36%) showed an effect of 50% or more. This is one part of the list.

test system: Plasmodium falciparum; assay: Primary screen in NF54 nanoGlo assay, in single point, at 2uM, 72h; a lower Z score goes with more inhibition; format: functional, Erythrocyte; settings: timepoint 72 hour

SMILES | % Inhibition | Z score
COc1cc2c(cc1OC)CN(C(=O)COc1ccc(-c3ccn[nH]3)cc1)CC2 | 29% | -3.91
O=C(Cn1nnc2c1CCCC2)N1CCc2c(ncn2-c2ccccc2)C1 | -8% | 0.84
Cc1csc(Cc2nc(-c3ccc(Br)cc3)cs2)n1 | 5% | -0.43
CCc1nccc(CN2CCc3[nH]cnc3[C@@H]2c2cc3ccccc3o2)n1 | -1% | 0.24
CCC(C)(C)NC(=O)c1ccc(N(C)C)cc1 | -1% | 0.09
CNc1snc(C)c1C(=O)N1CC[C@H](Oc2ccc(Cl)c(Cl)c2)C1 | -1% | 0.14
Cc1n[nH]c([C@@H]2CN(Cc3ccnn3C3CCC3)CCO2)n1 | 2% | -0.43
CC(c1ccc(Cl)cc1)C(C)N(C)C(=O)c1ccnc(C(=O)O)c1 (stereo not drawn) | -9% | 1.98
CCc1nc(CN2C(=O)COc3ccc(S(=O)(=O)N4CCc5ccccc5C4)cc32)no1 | -4% | 0.45
Cn1cc([C@@H](O)C(=O)OCCOc2ccccc2F)cn1 | -1% | 0.08
CNC(=O)CNC(=O)c1ccc(F)cc1F | -1% | 0.2
CC(C)c1cc(C(=O)N2CCCCO2)nc(N)n1 | -10% | 1.41
COc1cccc(-c2nc(CN(CCO)[C@@]3(C)CCS(=O)(=O)C3)c(C)o2)c1OC | -6% | 0.79
CC[C@H](C)N(Cc1c(-c2ccccc2F)noc1N1CCOCC1)C(=O)c1ccccc1F | 9% | -1.47
O=C(Nc1nncs1)[C@@H]1CCCN1c1ncnc2sccc12 | -6% | 0.72
CCOC1CC(N(C)c2nccc(-n3cccn3)n2)C1(CC)CC (stereo not drawn) | -4% | 0.64
COc1ccc(CC(=O)N2CCC[C@H]2C(=O)N[C@@H]2CCCC[C@H]2N(Cc2cccc(C)c2)C(=O)c2ccc(OC)cc2)cc1 | -4% | 0.47
Cc1ccc(NC(=O)c2cnc3ccccn23)cc1N1C(=O)CNC1=O | -15% | 2.4
O=C([C@H]1CC(=O)N(c2cccc(-c3noc(C4CCC4)n3)c2)C1)N1CCN(c2ccccc2F)CC1 | -11% | 1.44
Cc1ccc(C)c2c(N)c3c(nc12)N(C)CCCC3 | -2% | 0.26
COC(=O)CC(NC(=O)C1CC(C)CCC1C(C)C)C(=O)OC (stereo not drawn) | 6% | -0.74

SMILES | % Inhibition | Z score
CCOCCN(C)C(=O)Nc1sc(-c2ccccc2)nc1C | 4% | -0.79
CCc1n[nH]c(C(=O)NCc2nc(C(F)(F)F)n[nH]2)c1C | -2% | 0.35
C1CCC(N2CCC(c3nc([C@H]4CCOC4)no3)CC2)C1 | 8% | -0.73
Cc1ccc(C[C@H](NC(=O)NCC2(O)CCC2)c2ccccn2)cc1 | -9% | 1.35
O=C([C@H]1CC(=O)N(c2ccccc2)C1)N1CCN(c2ccccn2)CC1 | -14% | 1.33
CC(C)n1ncc2cc(NS(=O)(=O)c3ccc(F)c(Cl)c3)cnc21 | 3% | -0.29
Cc1c(NC(=O)Nc2cccc(Cl)c2OC(C)C)cnn1CCO | -12% | 1.39
C[C@H]1CN(C(=O)Nc2cccc(C(=O)NC3CC3)c2)CCCO1 | -2% | 0.32
CN1CC[C@H](Oc2nccc(C(F)(F)F)n2)C1 | -20% | 2.87
Cc1nnc(CNC(=O)c2ccc(NC(=O)C3CCC3)cc2)o1 | 2% | -0.21
Cc1ccc(S(=O)(=O)N2CCC(CNC(=O)c3cnccn3)CC2)c(F)c1 | -3% | 0.49
FC(F)(F)c1nnc(N2CCC(n3cccn3)CC2)s1 | -13% | 2.01
Cc1ccc(N2CCCC2)c(C(=O)N2CCC[C@H](S(C)(=O)=O)C2)c1 | 2% | -0.24
Cn1c(=O)n(CCOc2ccc(Cl)cc2Cl)c2ccccc21 | 7% | -0.9
O=C(CCN1CCCCO1)N1CCO[C@@H](CCCc2ccccc2)C1 | 5% | -1.02
FC(F)(F)c1ccnc(N2CCN(C3CCN(C[C@H]4COc5ccccc5O4)CC3)CC2)c1 | -7% | 0.9
CCCCOc1ccccc1CN1CCN2C(=O)NC[C@H]2C1 | -10% | 1.01
O=C(Nc1ccccn1)c1n[nH]c2c1COc1ccccc1-2 | -16% | 2.1
Cc1n[nH]c(C)c1CCCN[C@@H](C)CC(F)(F)F | 4% | -0.68
CC1CC1NC(=O)[C@@H]1C[C@@H](O)CN1C(=O)OCc1ccccc1 (stereo partly drawn) | -4% | 0.64
Cc1cc(C)c([C@H]2NC(=O)N(Cc3nonc3C)C2=O)c(C)c1 | -4% | 0.66

SMILES | % Inhibition | Z score
CC(C)C(NC(=O)CN1CCCC1C(=O)O)c1ccc(F)cc1 (stereo not drawn) | -12% | 1.59
Cc1ccc(C#N)c(NCC2CCC3(CCOCC3)C2O)n1 (stereo not drawn) | -17% | 1.98
O=C(c1ccn2nnnc2c1)N1CC(C(F)(F)F)C1 | -13% | 1.8
COc1ccccc1N1CCN(C(=O)C2CCN(S(=O)(=O)Cc3ccccc3Cl)CC2)CC1 | -14% | 2.65
COc1ccc([C@@H]2CCON2Cc2ccccc2Cl)cc1 | -3% | 0.37
O[C@H]1[C@H](NCC2CCCCC2)[C@H]2CO[C@H](O2)[C@@H]1n1cccn1 | -7% | 1.39
FC(F)(F)c1cccc(C2(c3nnc(Cc4cccc5ccccc45)o3)CCOCC2)c1 | -17% | 2.49
Cc1ccccc1CNC(=O)[C@H]1CCCN(c2nc3ccc(Cl)cc3[nH]2)C1 | 9% | -1.55
CN(CC(=O)Nc1ccc(Cl)cc1C#N)S(C)(=O)=O | -5% | 0.84
CCc1nc(C)cc(NCC2(COC)CCC2)n1 | -9% | 1.65
Cc1ccc(C2=NN(c3cc(C)nc(-c4ccccc4)n3)C(=O)C2)cc1 | 10% | -1.8
CCc1cc(CNC(=O)[C@@]2(C)CC2(Cl)Cl)[nH]n1 | 1% | -0.09
COc1cc(-c2ccccc2)ccc1CN1CCC[C@H]1c1nncn1C | 3% | -0.35
O=C(Cc1ccon1)N[C@H]1CCCOc2c1ccc1ccccc21 | -3% | 0.4
CCc1nc(NC(=O)COC[C@H]2CCCN(C(=O)OC(C)(C)C)C2)sc1C | -7% | 1.39
CN(C(=O)C[C@H]1CCCS(=O)(=O)C1)C1CCC(F)(F)CC1 | -4% | 0.67
N#CC1(NC(=O)Cn2cnc3ccc(Cl)cc3c2=O)CCCC1 | -13% | 1.81
Cc1nc(CNC(=O)Nc2ccc(Br)c(C)n2)no1 | 35% | -1.45
CN1CCN(S(=O)(=O)c2ccc(F)c(F)c2)C[C@H]1c1ccccc1 | 36% | -4.11
NC(=O)c1cc([C@H]2CCCN(CC(=O)NCc3cccs3)C2)n[nH]1 | 1% | -0.11
O=C1CCC2(CCN1)CCN(CCCc1ccco1)CC2 | 5% | -0.85

SMILES | % Inhibition | Z score
COCCN1C[C@@H](CNC(=O)c2ccc(C)nc2C)CC1=O | -13% | 2.44
CCO[C@@H](C)c1nc(Cn2cnc3cc(C)c(C)cc32)cs1 | -9% | 1.03
Cc1cc(N(C)C(=O)CN(C)S(C)(=O)=O)ccc1Br | -4% | 0.45
Cc1cc(OCC(=O)Nc2ccc(S(=O)(=O)N3C[C@H](C)Oc4ccccc43)cc2)cc(C)c1Cl | -11% | 1.42
CNc1ncccc1C(=O)NC(Cc1ccccn1)[C@H]1C[C@H](O)C1 (stereo partly drawn) | -2% | 0.4
N#Cc1nccnc1O[C@H]1CC[C@H](NC(=O)c2ccc3ncsc3c2)CC1 | -12% | 1.34
Cc1cccc2c1nc(COCC(=O)O)n2-c1ccncc1 | -2% | 0.33
CC(C)CNC(=O)N1CCC[C@H]1c1cccs1 | -1% | 0.15
O=C(c1ccc(OC(F)(F)F)cc1)N1CCCn2nc(-c3ccncc3)cc2C1 | -32% | 2.78
Cc1nc(N2CCCC2)nc(-c2cccc(C(=O)N[C@H]3CCOC3)c2)c1C | 7% | -1.24
NC(=O)c1c(NC(=O)c2ccncc2)sc2c1CCC2 | -8% | 1.42
CCOc1cccc([C@@H]2CC(c3ccccc3)=NC3(CCN(C(C)C)CC3)N2)c1O | -18% | 2.03
C#CCCC1(CCC(=O)NCc2cc(OC)no2)N=N1 | 10% | -1.19
N#CCCc1c(Cl)cccc1Cl | -3% | 0.59
Cc1oc(-c2ccsc2)nc1CN1CC[C@H](c2ccncc2)C1 | -20% | 1.83
CCc1cc(C(=O)Nc2ccc(-n3cncn3)nc2)sc1C | -23% | 2.52
Cc1nnc(C(=O)NCc2nc(C)c(C)s2)s1 | -7% | 1.2
COCCC(=O)N[C@H]1CC[C@]2(C)CCC([C@H](C)C(=O)NCc3ccc(F)cc3)[C@H](O)[C@H]2[C@@H]1C (stereo partly drawn) | 5% | -0.58
CN1CCN([C@H]2CN(c3ncccc3F)C[C@@H]2O)CC1 | -12% | 1.67
CCN1CCN(C[C@]2(O)CCCN(CCC3CCCCC3)C2=O)CC1 | -15% | 3.07
C=CCc1ccccc1OCCCON1C(=O)CCC1=O | 28% | -3.79
